B1: PhoQ; a variant is named by its letters at X, in order, P23837 (parent)
chain: MKKLLRLFFPLSLRVRFLLATAAVVLVLSLAYGMVALIGYSVSFDKTTFRLLRGESNLFYTLAKWENNKLHVELPENIDKQSPTMTLIYDENGQLLWAQRDVPWLMKMIQPDWLKSNGFHEIEADVNDTSLLLSGDHSIQQQLQEVREDDDDAEMTHSVAVNVYPATSRMPKLTIVVVDTIPVELKSSYMVWSWFIYVLSANLLLVIPLLWVAAWWSLRPIEALAKEVRELEEHNRELLNPATTRELTSLVRNLNRLLKSERERYDKYRTTLTDLTHSLKTPLXXLQXXLRSLRSEKMSVSDAEPVMLEQISRISQQIGYYLHRASMRGGTLLSRELHPVAPLLDNLTSALNKVYQRKGVNISLDISPEISFVGEQNDFVEVMGNVLDNACKYCLEFVEISARQTDEHLYIVVEDDGPGIPLSKREVIFDRGQRVDTLRPGQGVGLAVAREITEQYEGKIVAGESMLGGARMEVIFGRQHSAPKDE

306 variants from a collection of fitness landscapes (doi:10.1126/science.1257360) can be followed below.

The list shows a part of the results.

Variants of B1 are the subject of the assay. Description: enrichment ratio after two sorts for PhoP signalling (ratio (wild type AVST 3.29)); higher = more functional. The note with it: with PhoP (E. coli).
With LMCE, the enrichment ratio was ≤ 0.25.
On to IYIC, for which the enrichment ratio is ≤ 0.25.
On to ERER, for which the enrichment ratio was ≤ 0.25.
YDWS: the enrichment ratio is ≤ 0.25.
For the variant LHRT, the enrichment ratio is ≤ 0.25.
To ENMN belongs ≤ 0.25; to SIAG, 11; to GHQL, 0.412.
To ATNM belongs ≤ 0.25; to MAMY, 1.42; to VTGE, ≤ 0.25.
Turning to PCTN, the enrichment ratio was ≤ 0.25.
Regarding RMLE, the enrichment ratio was ≤ 0.25.
Consider LSTR, for which the enrichment ratio is ≤ 0.25.
SAVD: the enrichment ratio is ≤ 0.25.
As to FVKG, the enrichment ratio was ≤ 0.25.
Consider TCEN, for which the enrichment ratio is 0.333.
To TRTF belongs ≤ 0.25; to NMAA, ≤ 0.25.
To TKGF belongs ≤ 0.25.
As to RGTP, the enrichment ratio is ≤ 0.25.
FIVL: the enrichment ratio is 2.42.
Next, YKCE: ≤ 0.25; LHVF: ≤ 0.25.
To PEWL belongs ≤ 0.25; to PEPG, ≤ 0.25; to SLGT, ≤ 0.25.
To DCSR belongs ≤ 0.25.
For the variant IHPT, the enrichment ratio is ≤ 0.25.
To HKIS belongs ≤ 0.25.
As for DYKW, the enrichment ratio is ≤ 0.25.
As for ALRH, the enrichment ratio is ≤ 0.25.
To IKMI belongs ≤ 0.25; to YDDM, ≤ 0.25; to WSAC, ≤ 0.25.
In the case of EHHL, the enrichment ratio was ≤ 0.25.
Next, EVGG: ≤ 0.25.
To GHSF belongs ≤ 0.25.
As to WSMQ, the enrichment ratio was ≤ 0.25.
Next, WTAF: ≤ 0.25.
Take MQRC: the enrichment ratio is ≤ 0.25.
Consider GENI, for which the enrichment ratio is ≤ 0.25.
To WICL belongs ≤ 0.25.
Next, MHQP: ≤ 0.25; HGAV: ≤ 0.25; NALG: 0.397.
For the variant HYCV, the enrichment ratio is ≤ 0.25.
Next, VCWG: ≤ 0.25; EKTM: ≤ 0.25.
To WHWR belongs ≤ 0.25; to YDEF, ≤ 0.25.
With LQPR, the enrichment ratio was ≤ 0.25.
To NLVC belongs ≤ 0.25; to TTVF, ≤ 0.25.
As for PYPK, the enrichment ratio is ≤ 0.25.
SYST: the enrichment ratio stood at 0.257.
To VSEW belongs ≤ 0.25.
To REWA belongs ≤ 0.25.
As for KVIH, the enrichment ratio is ≤ 0.25.
Next, QYKK: ≤ 0.25; EWLY: ≤ 0.25; LWHF: ≤ 0.25.
As to WYVS, the enrichment ratio was ≤ 0.25.
To HAKF belongs ≤ 0.25.
For LLAW, the enrichment ratio is ≤ 0.25.
To KAAD belongs ≤ 0.25; to SVTD, ≤ 0.25; to QRFK, ≤ 0.25.
Next, PWLG: ≤ 0.25; SGQA: ≤ 0.25; ICPT: ≤ 0.25.
For EQTG, the enrichment ratio was ≤ 0.25.
Consider LMQR, for which the enrichment ratio was ≤ 0.25.
To YNKS belongs ≤ 0.25; to IITY, ≤ 0.25; to NYNI, ≤ 0.25.
Next, PTGG: ≤ 0.25.
Next, ILVD: ≤ 0.25.
Turning to DYYE, the enrichment ratio is ≤ 0.25.
Turning to FCKY, the enrichment ratio is ≤ 0.25.
To GNHF belongs ≤ 0.25; to CIYA, ≤ 0.25; to TDKD, ≤ 0.25.
Next, KSAF: ≤ 0.25; EDDH: ≤ 0.25; DVMW: ≤ 0.25.
Next, IWKN: ≤ 0.25; FWHL: ≤ 0.25.
In the case of KLWM, the enrichment ratio is ≤ 0.25.
To SHRL belongs ≤ 0.25; to IDTI, ≤ 0.25.
To EDRD belongs ≤ 0.25; to MKMH, ≤ 0.25.
To FIIV belongs ≤ 0.25.
As to GCWP, the enrichment ratio is ≤ 0.25.
To AYDD belongs ≤ 0.25; to NYWN, ≤ 0.25; to HPGN, ≤ 0.25.
To FNQG belongs ≤ 0.25; to WYCY, ≤ 0.25; to HKCM, ≤ 0.25.
In the case of VKVW, the enrichment ratio is ≤ 0.25.
Consider SSPI, for which the enrichment ratio was found to be 7.09.
As for YRFY, the enrichment ratio is ≤ 0.25.
Next, ANCY: 10.9; SYLT: ≤ 0.25.
On to RLVA, for which the enrichment ratio is ≤ 0.25.
For ITKH, the enrichment ratio is ≤ 0.25.
With VIIE, the enrichment ratio was ≤ 0.25.
To HLKM belongs ≤ 0.25; to QRPT, ≤ 0.25.
To KVVK belongs ≤ 0.25; to RHPI, ≤ 0.25.
Next, RGFW: ≤ 0.25; IHLW: ≤ 0.25; IPFH: ≤ 0.25.
In the case of NSEL, the enrichment ratio was ≤ 0.25.
NGII: the enrichment ratio is ≤ 0.25.
Regarding DING, the enrichment ratio was ≤ 0.25.
With PGLA, the enrichment ratio was ≤ 0.25.
For the variant AIGE, the enrichment ratio stood at 10.6.
As to QIFL, the enrichment ratio is ≤ 0.25.
For the variant RMSG, the enrichment ratio was ≤ 0.25.
Next, RNNF: 0.545; GDGF: ≤ 0.25.
Next, FIFC: ≤ 0.25; SKPY: ≤ 0.25; HHAN: ≤ 0.25.
Next, FGKG: ≤ 0.25.
As to PGPM, the enrichment ratio is ≤ 0.25.
Next, GNIC: 2.72; LIQT: ≤ 0.25.
As to WKPC, the enrichment ratio is ≤ 0.25.
To FLNN belongs ≤ 0.25.
To SCID belongs ≤ 0.25; to PSSS, ≤ 0.25; to RTHW, ≤ 0.25.
Next, PYLC: ≤ 0.25.
With LAHQ, the enrichment ratio is ≤ 0.25.
For the variant AVVL, the enrichment ratio came out at 0.918.
With GCFE, the enrichment ratio was ≤ 0.25.
Next, QNPQ: ≤ 0.25; LTQL: ≤ 0.25.
Regarding YKTD, the enrichment ratio was ≤ 0.25.
To MCMR belongs ≤ 0.25.
For SSHD, the enrichment ratio was ≤ 0.25.
To FLQC belongs ≤ 0.25; to ITTQ, ≤ 0.25; to ASGS, 3.2.
For NTYG, the enrichment ratio was ≤ 0.25.
Next, SDFS: ≤ 0.25; PLMF: ≤ 0.25; TWFL: ≤ 0.25.
Next, HFIP: ≤ 0.25; YWNG: ≤ 0.25.
For the variant LFIA, the enrichment ratio was ≤ 0.25.
To EWRV belongs ≤ 0.25.
To YVRS belongs ≤ 0.25; to FSCW, ≤ 0.25; to KMFH, ≤ 0.25.
Next, PCGA: ≤ 0.25.
As for YYNQ, the enrichment ratio is ≤ 0.25.
To SISD belongs 1.93; to QTEL, ≤ 0.25; to NNHN, ≤ 0.25.
To SCPK belongs ≤ 0.25; to YWIP, ≤ 0.25; to SNPQ, ≤ 0.25.
For AYSP, the enrichment ratio is ≤ 0.25.
To KYMS belongs ≤ 0.25; to APGP, ≤ 0.25.
To WHVV belongs ≤ 0.25; to DGMT, ≤ 0.25; to EFWQ, ≤ 0.25.
Next, DHSP: ≤ 0.25; EMKE: ≤ 0.25; VMTQ: ≤ 0.25.
Take RGEY: the enrichment ratio was ≤ 0.25.
Take WVPV: the enrichment ratio was ≤ 0.25.
As for FMQV, the enrichment ratio is ≤ 0.25.
To AERL belongs ≤ 0.25; to GFLC, 0.939; to PHLA, ≤ 0.25.
To FCRI belongs ≤ 0.25.
Next, EHPS: ≤ 0.25; EKFQ: ≤ 0.25; MMAF: 13.
Consider SQVG, for which the enrichment ratio stood at 9.71.
Next, NVHH: ≤ 0.25.
To PRVD belongs ≤ 0.25.
As to DYYT, the enrichment ratio is ≤ 0.25.
To RKSC belongs ≤ 0.25; to RDPG, ≤ 0.25.
For PGCI, the enrichment ratio was ≤ 0.25.
To SAML belongs 16.5; to IERW, ≤ 0.25; to RWVW, ≤ 0.25.
Next, HHWG: ≤ 0.25; TKMS: 3.1.
Next, DIHK: ≤ 0.25.
With SVQQ, the enrichment ratio was ≤ 0.25.
Next, KFDS: ≤ 0.25; KHDG: ≤ 0.25.
As to SYEA, the enrichment ratio was ≤ 0.25.
For FCFG, the enrichment ratio was determined as 0.349.
Next, EPMN: ≤ 0.25; GLRM: ≤ 0.25.
As to KHHS, the enrichment ratio was ≤ 0.25.
Regarding MNQG, the enrichment ratio was ≤ 0.25.
As to ISEL, the enrichment ratio is ≤ 0.25.
As to GNTI, the enrichment ratio was found to be 4.8.
For NSLI, the enrichment ratio was determined as 4.88.
In the case of RVMC, the enrichment ratio is ≤ 0.25.
In the case of TQTA, the enrichment ratio is 5.01.
Next, KNGY: ≤ 0.25.
To QERP belongs ≤ 0.25; to HYRI, ≤ 0.25; to VIPK, ≤ 0.25.
Next, YGYP: ≤ 0.25; SDNH: ≤ 0.25; EEGD: ≤ 0.25.
For LVRL, the enrichment ratio is ≤ 0.25.
To TLEV belongs 1.08; to HHGW, ≤ 0.25.
To QMCY belongs 9.66; to VTQG, ≤ 0.25.
To PYEY belongs ≤ 0.25.
Take GIYT: the enrichment ratio was ≤ 0.25.
For CSGS, the enrichment ratio is ≤ 0.25.
With QNYI, the enrichment ratio was ≤ 0.25.
To RESN belongs ≤ 0.25; to FHHQ, ≤ 0.25.
Next, IQEM: ≤ 0.25; RKAQ: ≤ 0.25; REFN: ≤ 0.25.
LAAW: the enrichment ratio is ≤ 0.25.
To GMMD belongs ≤ 0.25.
Next, FKRV: ≤ 0.25; SSPS: ≤ 0.25; FYVK: ≤ 0.25.
To RLWT belongs ≤ 0.25; to MNGM, 7.79.
On to LYIY, for which the enrichment ratio was ≤ 0.25.
On to DIAG, for which the enrichment ratio is ≤ 0.25.
Next, IPWP: ≤ 0.25; MDKS: ≤ 0.25; ARSM: 4.49.
Take VTGQ: the enrichment ratio was ≤ 0.25.
Next, YEKD: ≤ 0.25; DVPC: ≤ 0.25.
To SLFL belongs ≤ 0.25; to ANEN, ≤ 0.25.
Next, DMNH: ≤ 0.25.
With YMGA, the enrichment ratio was ≤ 0.25.
Regarding YKTW, the enrichment ratio is ≤ 0.25.
Next, FPGG: ≤ 0.25; PTGD: ≤ 0.25; WSIS: ≤ 0.25.
Consider IRDK, for which the enrichment ratio was ≤ 0.25.
Turning to DPAG, the enrichment ratio is ≤ 0.25.
Next, SMFL: ≤ 0.25.
Next, SAHW: ≤ 0.25.
With RADF, the enrichment ratio was ≤ 0.25.
To SKAL belongs 12.2; to EHLG, ≤ 0.25; to LQCM, ≤ 0.25.
HCCW: the enrichment ratio was ≤ 0.25.
Turning to PSKM, the enrichment ratio was ≤ 0.25.
To KIMR belongs ≤ 0.25; to GRTK, ≤ 0.25; to HYIN, ≤ 0.25.
To YRIQ belongs ≤ 0.25.
Next, LVAS: ≤ 0.25; HPTE: ≤ 0.25.
Turning to PINN, the enrichment ratio is ≤ 0.25.
To DDTH belongs ≤ 0.25.
Consider YLCK, for which the enrichment ratio is ≤ 0.25.
To NQIT belongs ≤ 0.25; to YEIK, ≤ 0.25; to WPKC, ≤ 0.25.
For the variant SYPK, the enrichment ratio was ≤ 0.25.
With WDGL, the enrichment ratio is ≤ 0.25.
Next, FSHL: ≤ 0.25; FTDP: ≤ 0.25.
As to TTTK, the enrichment ratio is 16.7.
Take CTGL: the enrichment ratio was ≤ 0.25.
Turning to GPSG, the enrichment ratio is ≤ 0.25.
Next, KAHW: ≤ 0.25; RVQT: ≤ 0.25; NKKS: ≤ 0.25.
Next, HLAI: ≤ 0.25; TFNW: ≤ 0.25; FAEE: ≤ 0.25.
Turning to DNSH, the enrichment ratio is ≤ 0.25.
To GPAK belongs ≤ 0.25.
To LIEW belongs ≤ 0.25; to LWSF, ≤ 0.25.
Next, NCLP: ≤ 0.25; AHPR: ≤ 0.25.
As to HKRR, the enrichment ratio was ≤ 0.25.
On to RGQS, for which the enrichment ratio was ≤ 0.25.
To RTDI belongs ≤ 0.25; to STAS, 7.84.
Next, NSAF: ≤ 0.25; SWGC: ≤ 0.25; WNWM: ≤ 0.25.
